Reference: US20200299342A1 (GOVERNING COUNCIL OF THE UNIVERSITY OF TORONTO, published 2020)

B1: Ubv.Fw7.5 (designed binder)
chain: MAHHHHHHVTSLYKKAGDYKDDDDKMQIFVKTGARTGITLEVEPSDTIENVKAKIQDKEGIPPDQQVLIFSRKRLEDGRTLSDYNIQKESTLRLVLVFGRR
notes: Purified protein for ELISA
B2: FLAG-Ubv.Fw11.2 monomer (designed binder)
chain: MDYKDDDKGQGPDPSTNSADITSLYKKAGTMDYKDDDDKMQIFVKTYPYKYGTYHHNYTITLEVEPSDTIENVKAKIQDKEGIPPDQQVLIFSRKRLEDGRTLSDYNIQKESTLRLVLVFGRR
notes: Expressed in HEK293T cells
B3: FLAG-Ubv.Fw7.5 monomer (designed binder)
chain: MDYKDDDKGQGPDPSTNSADITSLYKKAGTMDYKDDDDKMQIFVKTGARTGITLEVEPSDTIENVKAKIQDKEGIPPDQQVLIFSRKRLEDGRTLSDYNIQKESTLRLVLVFGRR
notes: Expressed in HEK293T cells

Columns and labels:
Skp1-F-box^Fbw7 complex = biological target: T1, Skp1-F-box^Fbw7 complex (human, UniProt P63208 1-163); assay: competitive ELISA: Skp1-F-box^Fbw7 in solution (varied) blocks Ubv binding to the immobilised complex
Sequence of Skp1-F-box^Fbw7 complex (P63208 other isoform, or with tags, fused parts or gaps limits assumed, chain 1 of 2): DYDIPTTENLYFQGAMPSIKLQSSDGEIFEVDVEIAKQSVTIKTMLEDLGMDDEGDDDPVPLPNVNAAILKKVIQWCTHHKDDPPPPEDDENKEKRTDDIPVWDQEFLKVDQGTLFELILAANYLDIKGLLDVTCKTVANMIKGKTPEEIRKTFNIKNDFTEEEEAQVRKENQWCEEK
Sequence of Skp1-F-box^Fbw7 complex (chain, as listed by the source limits assumed, chain 2 of 2): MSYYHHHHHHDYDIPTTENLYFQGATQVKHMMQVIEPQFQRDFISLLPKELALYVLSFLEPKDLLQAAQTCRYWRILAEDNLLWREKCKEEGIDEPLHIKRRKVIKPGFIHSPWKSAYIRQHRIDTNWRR
T1 construct: Full-length Skp1 in complex with the F-box domain; also called SKp1-Fbw7

Skp1-F-box^Fbw2 complex = Skp1-F-box^Fbw2 complex (human, UniProt P63208 1-163); assay: ELISA, Skp1-F-box domain complexes
Sequence of Skp1-F-box^Fbw2 complex (P63208 other isoform, or with tags, fused parts or gaps limits assumed, chain 1 of 2): as the sequence (P63208 other isoform, or with tags, fused parts or gaps limits assumed, chain 1 of 2) above
Sequence of Skp1-F-box^Fbw2 complex (chain, as listed by the source limits assumed, chain 2 of 2): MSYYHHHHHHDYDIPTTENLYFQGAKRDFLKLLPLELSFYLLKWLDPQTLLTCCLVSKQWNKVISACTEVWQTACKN

SKP1 (Skp1), endogenous = biological target: T2, SKP1 (Skp1), endogenous (human, UniProt P63208 2-163); assay: FLAG-IP MS, HEK293T
Sequence of SKP1 (Skp1), endogenous (P63208 2-163 limits assumed): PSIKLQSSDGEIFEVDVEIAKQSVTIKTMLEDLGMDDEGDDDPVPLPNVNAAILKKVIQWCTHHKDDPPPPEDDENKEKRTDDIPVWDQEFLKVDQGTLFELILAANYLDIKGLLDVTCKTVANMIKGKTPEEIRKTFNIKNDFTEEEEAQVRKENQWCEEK
T2 construct: also called P63208

HA-Fbw7 = biological target: T3, HA-Fbw7 (human, UniProt Q969H0 1-707); assay: FLAG immunoprecipitation, HA western blot, HEK293T
Sequence of HA-Fbw7 (Q969H0 other isoform, or with tags, fused parts or gaps limits assumed): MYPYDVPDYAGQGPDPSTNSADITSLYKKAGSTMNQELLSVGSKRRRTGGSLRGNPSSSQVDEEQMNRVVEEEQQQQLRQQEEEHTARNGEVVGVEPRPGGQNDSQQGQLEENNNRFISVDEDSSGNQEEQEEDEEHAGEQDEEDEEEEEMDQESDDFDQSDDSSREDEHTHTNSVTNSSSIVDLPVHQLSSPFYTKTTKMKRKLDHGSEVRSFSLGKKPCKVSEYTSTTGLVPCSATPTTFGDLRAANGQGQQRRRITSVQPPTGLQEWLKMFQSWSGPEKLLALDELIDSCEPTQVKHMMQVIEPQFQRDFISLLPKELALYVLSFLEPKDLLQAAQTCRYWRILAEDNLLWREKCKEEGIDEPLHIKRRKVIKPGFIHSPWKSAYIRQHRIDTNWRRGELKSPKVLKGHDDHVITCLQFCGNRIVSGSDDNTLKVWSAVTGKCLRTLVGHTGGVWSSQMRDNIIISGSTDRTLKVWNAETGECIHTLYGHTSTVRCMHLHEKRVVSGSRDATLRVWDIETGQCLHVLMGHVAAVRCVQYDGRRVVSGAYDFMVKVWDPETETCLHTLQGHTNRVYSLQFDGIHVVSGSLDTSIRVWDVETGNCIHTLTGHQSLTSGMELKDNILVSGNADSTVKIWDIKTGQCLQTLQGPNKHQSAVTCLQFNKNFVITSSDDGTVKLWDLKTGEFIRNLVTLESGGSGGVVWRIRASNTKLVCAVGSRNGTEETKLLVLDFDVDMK
T3 construct: Exogenously expressed in HEK293T cells; also called Fbw7-HA

Binder	IC50 (Skp1-F-box^Fbw7 complex) [µM]	fold lower affinity than for Fbw7 (Skp1-F-box^Fbw2 complex) [fold]	binding result (SKP1 (Skp1), endogenous)	binding result (HA-Fbw7)
B1	0.045	8	–	–
B2	–	–	binds	–
B3	–	–	binds	binds
